Experimental data published in publication PMC4336329 (PLoS ONE, 2015).
Out of some 310,000 compounds screened, about 14,000 (4.5%) showed an effect of 50% or more. The effect is printed as a negative number. The list shows a part of the results.

What follows are molecules tested against human ether-à-go-go-related gene (hERG) potassium channel (human, UniProt Q12809) (assay: primary screen, population patch clamp on CHO cells stably expressing hERG).
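Note: peak tail current of the secondary pulse compared with the same well before compound.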

Sequence of human ether-à-go-go-related gene (hERG) potassium channel (Q12809 whole entry, looked up): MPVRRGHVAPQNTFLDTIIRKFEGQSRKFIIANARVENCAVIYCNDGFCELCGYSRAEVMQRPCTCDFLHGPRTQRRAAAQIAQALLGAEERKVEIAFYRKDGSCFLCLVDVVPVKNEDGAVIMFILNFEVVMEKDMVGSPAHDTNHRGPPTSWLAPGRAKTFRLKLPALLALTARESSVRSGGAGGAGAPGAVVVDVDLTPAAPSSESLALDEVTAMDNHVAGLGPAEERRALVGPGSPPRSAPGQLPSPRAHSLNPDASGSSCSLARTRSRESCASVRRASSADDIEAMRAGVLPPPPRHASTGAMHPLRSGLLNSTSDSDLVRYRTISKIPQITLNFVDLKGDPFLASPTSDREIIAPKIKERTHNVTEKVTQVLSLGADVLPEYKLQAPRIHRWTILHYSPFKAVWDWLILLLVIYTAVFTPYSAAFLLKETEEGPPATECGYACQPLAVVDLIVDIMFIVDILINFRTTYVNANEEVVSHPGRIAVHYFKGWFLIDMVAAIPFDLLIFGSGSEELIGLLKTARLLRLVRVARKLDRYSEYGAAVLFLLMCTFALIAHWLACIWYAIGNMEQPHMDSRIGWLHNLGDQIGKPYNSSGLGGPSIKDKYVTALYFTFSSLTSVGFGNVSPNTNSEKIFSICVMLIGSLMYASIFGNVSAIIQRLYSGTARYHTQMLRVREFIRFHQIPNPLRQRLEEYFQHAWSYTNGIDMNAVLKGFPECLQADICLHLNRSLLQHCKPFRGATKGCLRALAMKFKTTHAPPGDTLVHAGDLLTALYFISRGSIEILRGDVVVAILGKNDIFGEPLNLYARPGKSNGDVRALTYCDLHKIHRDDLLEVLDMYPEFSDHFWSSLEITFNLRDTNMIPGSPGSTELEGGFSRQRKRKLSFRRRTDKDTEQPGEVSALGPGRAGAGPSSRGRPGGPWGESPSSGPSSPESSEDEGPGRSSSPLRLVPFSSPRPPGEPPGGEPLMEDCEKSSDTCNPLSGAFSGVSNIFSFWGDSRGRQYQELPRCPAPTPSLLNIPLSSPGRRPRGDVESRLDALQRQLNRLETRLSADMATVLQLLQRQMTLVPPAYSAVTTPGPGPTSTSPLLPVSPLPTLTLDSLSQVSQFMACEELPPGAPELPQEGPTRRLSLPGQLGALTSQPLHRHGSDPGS

Compound | hERG current change (%, negative = inhibition) at 10uM
NC(=O)C1CCN(CCC(=O)Nc2ccc(Br)cc2)CC1 | -26.8%
CCN(CC)CCNC(=S)NC(=O)c1cn(-c2ccccc2)nc1-c1ccc(OC)cc1 | -27.3%
COc1cc(OC)cc(-c2cc(N)n(S(=O)(=O)Cc3ccccc3)n2)c1 | -0.0642%
Cc1ccc(C)c(NC(=O)CN(C)C(=O)c2cccc(S(=O)(=O)N(C)C)c2)c1 | 12.8%
Cc1c(C(=O)N2CCN(CCc3ccccn3)CC2)oc2ccc(F)cc12 | -72.1%
COc1ccc(/C=C/c2c(-c3ccc(OC)cc3)oc3cccnc23)cc1 | 22.7%
NS(=O)(=O)c1ccc(S(=O)(=O)N2CCN(C3CCCC3)CC2)cc1 | 15.1%
CCCCn1c(N)c(N(CCOC)C(=O)c2cccc(S(=O)(=O)N3CCCCCC3)c2)c(=O)[nH]c1=O | -2.57%
C/C(=N\Nc1ccc(S(N)(=O)=O)cc1[N+](=O)[O-])c1ccccc1O | 8.64%
O=C(COC(=O)c1ccc2ncsc2c1)Nc1ccc(Cl)cc1 | -1.73%
CN1CCN(C(=O)c2ccc3c(c2)S(=O)(=O)c2ccccc2C3=O)CC1 | -35.9%
Cc1ccc(O)c(CNc2ccc(S(=O)(=O)Nc3nccs3)cc2)c1 | 11.9%
Cc1c(C#N)c2ccccc2n1CC(=O)NCCc1c[nH]c2ccccc12 | -2.5%
CC(=O)N(C)c1ccc(NC(=O)Cc2cccs2)cc1 | 14.1%
Cc1ccc(OCCC(=O)OCC(=O)C(C)(C)C)cc1 | -3.71%
O=[N+]([O-])c1cc([N+](=O)[O-])c2cccnc2c1O | 18.2%
CCC(C)NC(=O)CCn1c(-c2ccccc2)cc(C(C)=O)c1C (centres unmarked) | 21.5%
Cc1ccc(CNc2cnccn2)cc1 | -19%
Cc1ccc(OCCOCCn2cnc3ccccc3c2=O)c([N+](=O)[O-])c1.O=C(O)C(=O)O | -42.9%

Compound | hERG current change (%, negative = inhibition) at 10uM
Cn1cc(CN2CCC[C@H]2CO)c(-c2cccc(Cl)c2)n1 | -15.1%
CN(C)S(=O)(=O)c1ccc(C(=O)NCC(=O)N/N=C/c2ccco2)cc1 | 13.2%
CCCn1c(C)cc(C(=O)COc2ccc(C)nc2[N+](=O)[O-])c1C | -17%
CN1CCN(S(=O)(=O)c2cnc(Cl)c(Br)c2)CC1 | 10.5%
Cc1nn(Cc2ccccc2)c2sc(C(=O)NCc3cccnc3)cc12 | -46.9%
CCCCC(=O)NC1(C(F)(F)F)NC(=O)N(Cc2ccccc2)C1=O (centres unmarked) | -5.37%
CCOc1cccc(C(=O)Nc2nccs2)c1 | -3.11%
Cc1cc(S(=O)(=O)Nc2ccc(C(=O)NCCCN3CCOCC3)cc2)ccc1F | 3.07%
C/C(=N\NC(=S)Nc1ccccc1C)c1cc2ccccc2o1 | 5.17%
O=C(c1ccc2ccccc2n1)N1CCN(c2ccccc2O)CC1 | -0.197%
CN=C(Nc1ccc(Cl)cc1)c1cccc(C(F)(F)F)c1 | 9.84%
Cc1ccc(S(=O)(=O)NNC(=O)c2ccc(O)cc2)cc1 | 2.9%
CC(=O)c1c(Nc2ccc3c(c2)OCCO3)oc(C)cc1=O | 6.91%
COC(=O)c1ccc(C)c(NC(=O)CCSc2ccc(Cl)cc2)c1 | -0.245%
O=C(CSc1nc2ccsc2c(=O)n1Cc1ccccc1)NCC1CCCO1 (centres unmarked) | -25.7%
Cc1cc(C(=O)NCC(=O)OC(C)C(=O)N2CCOCC2)ccc1[N+](=O)[O-] (centres unmarked) | -3.98%
Cc1ccc(C)c2[nH]c(=O)c(C(c3nnnn3Cc3ccccc3)N3CCc4ccccc4C3)cc12 (centres unmarked) | -9.12%
CN1Cc2c(N3CCOCC3)nc(SCc3ccccc3)c(C#N)c2CC1(C)C | -12.9%
COc1ccc2ccccc2c1/C=N\NC(=O)c1cccnc1 | 3.06%

Compound | hERG current change (%, negative = inhibition) at 10uM
CC(Sc1nnc(Cc2cccs2)n1C1CCCCC1)C(N)=O (centres unmarked) | -9.06%
COC(=O)C(Cc1cnc(Cl)s1)(C(=O)OC)c1ccc([N+](=O)[O-])cc1[N+](=O)[O-] | -28.5%
O=C(Nc1cccc(Cl)c1)c1csc(-c2ccccc2)n1 | 31.4%
CC(C)CC(=O)NC(=S)Nc1ccc(S(=O)(=O)Nc2nccs2)cc1 | 14.1%
COc1ccccc1NC(=O)N1CCCC(C(=O)Nc2cccc(C)c2C)C1 (centres unmarked) | 12.7%
O=C(Cn1nc(C(=O)O)c2ccccc2c1=O)Nc1ccccc1C(F)(F)F | -21.6%
CN(C)C(=O)Oc1ccc(-c2nnco2)cc1 | 7.11%
CC(C)CNC(=O)C1c2ccccc2Oc2ccccc21 | 15.4%
N#C/C(=C(/O)COC(=O)c1cccnc1Cl)c1nc2ccccc2[nH]1 | 25.6%
Cc1cc(S(=O)(=O)NCC(c2ccc(F)cc2)N2CCN(C)CC2)ccc1F (centres unmarked) | -68.4%
CCOC(=O)C1CCN(S(=O)(=O)Cc2ccccc2)C1=O (centres unmarked) | 4.99%
NS(=O)(=O)c1ccc(NC(=S)NCC2CCCO2)cc1 (centres unmarked) | 8.74%
COc1ccc(OCC(=O)Nc2cccc(C(C)=O)c2)cc1 | -7.29%
CCCc1nnc(SCC(=O)Nc2ccc3c(c2)OCCO3)n1CCOC | 30.9%
Cc1cccc(NCc2ccccc2)c1 | 5.29%
COC(=O)CCc1c(C)[nH]c(C(=O)OCc2ccccc2)c1C | -13.3%
O=C1C2C3c4ccccc4C(c4ccccc43)C2C(=O)N1CN1CCOCC1 (centres unmarked) | -1.38%
Cc1ccc(/C=C/C(=O)Nc2ccc([N+](=O)[O-])c(NC(=O)/C=C/c3ccc(C)o3)c2)o1 | 17.4%
